In all, about 110,000 compounds were measured (“z-score”: median about -0.1, highest 2% from about 2 on). Some of the results follow.
Each molecule was assayed against Metabotropic glutamate receptor 8 (Rattus norvegicus) (UniProt P70579) (assay: mGluR8 Gi/Go-coupled signaling modulation – cell-based, rat, thallium flux, HTS, primary screen (AID 488969)). Details: HEK293 rat mGluR8, GIRK (G protein-gated inwardly rectifying potassium channel) thallium flux, FluoZin2; at 10 µM; stronger effect = higher value; submaximal glutamate (EC20) added with thallium.
Sequence of UniProt P70579 (P70579 whole entry, looked up): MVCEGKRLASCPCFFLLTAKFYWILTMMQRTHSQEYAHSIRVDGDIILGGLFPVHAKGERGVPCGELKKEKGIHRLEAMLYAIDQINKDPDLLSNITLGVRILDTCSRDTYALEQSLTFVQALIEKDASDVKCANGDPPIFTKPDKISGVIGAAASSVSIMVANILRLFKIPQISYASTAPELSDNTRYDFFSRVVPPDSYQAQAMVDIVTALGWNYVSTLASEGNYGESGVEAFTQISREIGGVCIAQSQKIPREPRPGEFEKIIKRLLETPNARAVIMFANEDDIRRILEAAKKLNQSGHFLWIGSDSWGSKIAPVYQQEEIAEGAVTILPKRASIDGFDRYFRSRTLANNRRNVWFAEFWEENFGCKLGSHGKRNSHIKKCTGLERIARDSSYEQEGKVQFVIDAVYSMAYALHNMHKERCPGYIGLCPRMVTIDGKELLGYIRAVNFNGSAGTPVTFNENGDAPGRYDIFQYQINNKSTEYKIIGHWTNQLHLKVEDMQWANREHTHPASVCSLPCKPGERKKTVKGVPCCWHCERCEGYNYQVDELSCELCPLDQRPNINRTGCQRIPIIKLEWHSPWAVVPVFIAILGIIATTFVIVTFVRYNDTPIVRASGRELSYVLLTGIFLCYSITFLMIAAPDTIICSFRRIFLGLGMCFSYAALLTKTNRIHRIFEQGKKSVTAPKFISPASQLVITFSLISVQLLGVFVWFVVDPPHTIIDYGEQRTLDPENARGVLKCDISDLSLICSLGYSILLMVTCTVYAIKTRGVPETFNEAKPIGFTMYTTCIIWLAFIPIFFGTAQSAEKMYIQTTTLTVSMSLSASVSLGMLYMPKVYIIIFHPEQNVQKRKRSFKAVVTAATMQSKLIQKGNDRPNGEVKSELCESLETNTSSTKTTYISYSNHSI
In the case of `CCCC(=O)Nc1ccc(C(=O)N2CCCC2)cc1`, the z-score is reported as -0.0906. Work on `COc1ccccc1C1C(C#N)=C(N)N(c2cccnc2)C2=C1C(=O)CC(C)(C)C2` (stereo unspecified) yielded a z-score of -0.017. For `Nc1nnn(CC(=O)N/N=C/c2cccc3ccccc23)n1`, the z-score was -0.0446. `c1coc(Cn2nnnc2CN2CCN(C3CCCC3)CC2)c1` gave a z-score of 0.325. `CCOC(=O)c1oc2ccccc2c1NC(=O)c1cccc(OC)c1OC` gave a z-score of -0.439. For `CN(C)Cc1nc2c(c(=O)[nH]1)C(C)(C)Cc1ccccc1-2`, the z-score was 0.00689. In the case of `COc1ccc(C(=O)/C=C/Nc2ccccn2)cc1`, the z-score is reported as -0.371. For `CCn1c(/C=C/c2cccc([N+](=O)[O-])c2)nc2ccccc2c1=O`, the z-score was 0.0273. In the case of `CCCNS(=O)(=O)c1ccc(OCC(=O)N2CCC(C(=O)OCC)CC2)cc1`, the z-score is reported as 0.232. `Cc1ccc(Nc2ccc(C(=O)NCCc3ccccc3)cn2)cc1` gave a z-score of -0.106. `Cc1ccc(C(=O)n2cnnc2N)cc1C` showed a z-score of 0.229. Work on `S=C(NCc1cccnc1)Nc1ccc(Cl)c(Cl)c1` yielded a z-score of 0.672. With `NC(=O)C1CCN(C(=O)c2ccc(Oc3ccccc3)cc2)CC1` the z-score was 0.0261. Molecule `Cc1ccc(NC(=O)c2oc3c(c2C)C(=O)CC(C)(C)C3)cc1` has a z-score of 0.407. `O=C(COC(=O)c1ccccn1)NC1CCCCC1` gave a z-score of 0.138. `Cc1ccc2cc(COC(=O)C3CCCO3)c(=O)[nH]c2c1` (stereo unspecified) showed a z-score of 1.12. Work on `Cc1nonc1NC(=O)c1ccc(Cl)c(S(=O)(=O)N2CCCCC2)c1` yielded a z-score of -0.44. `C=CCn1c(SCc2c(C(=O)OC)sc(N)c2C(=O)OC)nnc1-c1ccc(Br)cc1` was tested, and the z-score was -0.395. `Cn1c(NC(=O)c2ccc3c(c2)OCO3)cc(=O)n(C)c1=O` showed a z-score of -0.265. Molecule `O=C(CSCc1c(Cl)cccc1Cl)NCc1ccco1` has a z-score of -0.132. `O=CNNC(=O)c1cccc([N+](=O)[O-])c1` showed a z-score of -0.102. In the case of `O=C(Cn1c(-c2ccc(Cl)cc2)noc1=O)N1CCN(c2ccccc2F)CC1`, the z-score is reported as -0.926. In the case of `CC(/C=C/c1ccco1)=N\NC(=O)C(O)c1ccccc1` (stereo unspecified), the z-score is reported as -0.055. For `c1ccc2c(c1)OCC(c1csc3ncnc(N4CCOCC4)c13)O2` (stereo unspecified), the z-score was -0.316. For `Cc1ccc(-c2nn(-c3ccccc3)cc2C=C2C(=O)CC(C)(C)CC2=O)cc1`, the z-score was -0.154. `Cc1ccc(-c2nc(CS(=O)(=O)CC(=O)NCCCN3CCN(C)CC3)c(C)o2)cc1` was tested, and the z-score was -0.341. For `CC(C)C(=O)Nc1nnc(SCC(=O)NCc2cccs2)s1`, the z-score was -0.825. `COC(=O)c1c(NC(=O)Cn2nc(C(F)F)cc2C(F)F)sc(C)c1C` showed a z-score of 0.152. `CCCCCCCCCCCNC(=O)c1ccoc1C` showed a z-score of 0.0259. `CN(C)c1ccc(P(=O)(OC2CCCCC2)C(O)c2cccnc2)cc1` (stereo unspecified) was tested, and the z-score was -0.0858. `CSc1nc(Oc2ccc3ccccc3c2)c2sccc2n1` gave a z-score of 0.0407. `CCOc1cc(-c2nc(-c3cc(OC)c(OC)c(OC)c3)no2)cc(OCC)c1OCC` was tested, and the z-score was 0.87. With `Cn1ncc(N=Cc2ccccc2)c1C(=O)Nc1cccc(Cl)c1` the z-score was -0.106. Work on `Cc1ccccc1-c1nnc(-c2ccc(Cl)cc2)o1` yielded a z-score of -0.333. Work on `FC(F)(F)c1cccc(NC(=S)N2CCN(c3ccccc3)CC2)c1` yielded a z-score of 0.0856. `N#CCCn1c(C2CCCCC2)nc2ccccc21` gave a z-score of 0.0918. In the case of `CCc1cccc(CC)c1NC(=O)c1cccc(NC(=O)c2ccccc2)c1`, the z-score is reported as -0.107. For `CC(C)CCC(C)N=Cc1c(O)n(Cc2ccccc2)c(=O)c2ccccc12` (stereo unspecified), the z-score was -0.0415. Work on `CCC(=O)Nc1ccc(Nc2ccccc2)cc1` yielded a z-score of 0.0667. With `CN(/C=C/C(=O)C(F)(F)F)Cc1ccccc1` the z-score was -0.217. Molecule `NS(=O)(=O)c1ccc(CCN=Cc2ccccc2O)cc1` has a z-score of -0.17. With `Cc1nn(C(C)C(=O)Nc2ccc(Cl)cn2)c(C)c1[N+](=O)[O-]` (stereo unspecified) the z-score was -0.494. With `CC(=O)Nc1ccc(NC(=O)CSc2nc3ccccc3o2)cc1` the z-score was -0.0932. In the case of `COc1ccc(CCN/C=C2/CC(=O)NC2=O)cc1OC`, the z-score is reported as 1.42. Molecule `O=C(O)CCC(=O)N1N=C(c2c(-c3ccccc3)c3cc(Cl)ccc3[nH]c2=O)CC1c1ccco1` (stereo unspecified) has a z-score of -0.219. `O=[N+]([O-])c1ccc(C(=S)N2CCC(Cc3ccccc3)CC2)cc1` showed a z-score of -0.242. `O=[N+]([O-])c1ccc(O)c(/C=N/Nc2nc3ccccc3[nH]2)c1` was tested, and the z-score was -0.372. `COc1cccc(S(=O)(=O)NCc2ccc(C(=O)Nc3ccc(C)cc3)cc2)c1` showed a z-score of 0.241. Work on `O=c1oc2ccccc2c2c1nc(C(F)(F)F)n2-c1ccccc1` yielded a z-score of -2.48. Molecule `CCN1C(=O)c2ccccc2S(=O)(=O)c2ccc(C(=O)NCc3cccnc3)cc21` has a z-score of -0.157. `Cc1cc(C)c(S(=O)(=O)c2c(C)cccc2C)c(Cl)n1` gave a z-score of 0.0429. `CCOC(=O)C1=C(N)N2C(=O)C(C)SC2=C(C(=O)OCC)C1c1ccccc1` (stereo unspecified) showed a z-score of -0.331. Molecule `Oc1ccc(C(=S)N2CCCCC2)cc1` has a z-score of -0.146. In the case of `CC(C)c1c(O)cc(-c2ccncc2)n(-c2ccc(Cl)cc2)c1=O`, the z-score is reported as 0.724. With `FC(F)(F)c1ccc(N2CCN(c3ncnc4c3nnn4Cc3ccccc3)CC2)nc1` the z-score was -0.129. `Cc1cc(NC(=O)c2c(-c3ccccc3Cl)noc2C)no1` showed a z-score of 0.878.
